Our source for the enrichment score values is the supplement of paper PMC10369915.

The labels stand for the following.
B1: SEC24A_Y263_S261G (peptide)
chain: VVHGSYDEIEG
B2: SENP1_Y349_D350G (peptide)
chain: ELTSVYGSRAR
B3: SCN1A_Y1694_Y1694C (peptide)
chain: MSNFACVKREV
B4: SEC22B_Y193_H190R (peptide)
chain: NMRSTYAKLAA
B5: SEC22B_Y110 (peptide)
chain: TVSRPYSFIEF
B6: SCN5A_Y1494 (peptide)
chain: EEQKKYYNAMK
B7: SCN4A_Y1074 (peptide)
chain: DKVFTYIFIME
B8: SDHA_Y629_Y629F (peptide)
chain: KHTLSFVDVGT
B9: SCP2_Y151_A155D (peptide)
chain: LLINKYGLSDH
B10: SCN5A_Y1495_K1500N_YF (peptide)
chain: EQKKFYNAMKN
B11: SCN5A_Y1494_E1489D_YF (peptide)
chain: DEQKKYFNAMK
B12: SEPSECS_Y334 (peptide)
chain: LGSNGYKKLLK
B13: SEMA3F_Y478 (peptide)
chain: AADGRYEVLFL
B14: SCN1A_Y1926_R1928G (peptide)
chain: IIQRAYRGHLL
B15: SEPSECS_Y334_Y334C (peptide)
chain: LGSNGCKKLLK
B16: SCN5A_Y1495_Y1495S_YF (peptide)
chain: EQKKFSNAMKK
B17: SENP1_Y349 (peptide)
chain: ELTSVYDSRAR
B18: SDAD1_Y580_S575C (peptide)
chain: CQKRKYIEIDS
B19: SERPINA1_Y184_Q180E (peptide)
chain: KEINDYVEKGT

Some of the results follow. Cut-off read from the data, not from the text of the source: active = 3.2 or more and inactive = the rest. Only a few entries rise above the background.
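Note: displayed peptides selected on beads carrying the immobilized SH2 domain, with library peptides lacking any tyrosine serving as negative controls.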

One test concerns the target SHP2 C-SH2 domain E139D. Briefly: enrichment score (SH2-bound / input frequency) (ratio); bacterial display of known human phosphotyrosine sites (pTyr-Var adds point mutants) read by sequencing; higher = stronger binding; tyrosines were phosphorylated by kinases first. The settings on record: peptide library: pTyr-Var.
For the molecule B1, the enrichment score was inactive: 0.374.
Still for that read-out and setting: then B2, with inactive: 0.647; and B3, with inactive: 0.81.
Regarding B4, the enrichment score is inactive: 1.06.
For B5, the enrichment score is inactive: 2.51.
Same read-out and setting: then B6, with inactive: 0.61.
The same measure, in the same setting: under B7 stands inactive: 1.09; under B8, inactive: 0.961; under B9, inactive: 1.38.
For B10, the enrichment score is inactive: 0.64.
On to B11, for which the enrichment score was inactive: 0.671.
On the same count and under the same terms, under B12 stands inactive: 0.432; under B13, inactive: 0.636.
The same measure, in the same setting: under B14 stands inactive: 0.679.
Still for that read-out and setting: under B15 stands inactive: 0.65.
B16: the enrichment score is inactive: 0.527.
As for B17, the enrichment score is inactive: 0.567.
The same measure, in the same setting: under B18 stands inactive: 0.804; under B19, inactive: 0.763.

A further test concerns the target SHP2 C-SH2 domain wild-type. The description is as above. Particulars: peptide library: pTyr-Var.
For the molecule B1, the enrichment score is inactive: 0.517.
As to B2, the enrichment score was inactive: 0.708.
On the same count and under the same terms, then B3, with inactive: 0.668.
The same measure, in the same setting: under B4 stands inactive: 2.56; under B5, active: 5.27; under B6, inactive: 0.594.
With B7, the enrichment score is inactive: 1.08.
On the same count and under the same terms, under B8 stands inactive: 0.732.
Take B9: the enrichment score was inactive: 1.1.
Still for that read-out and setting: then B10, with inactive: 0.696; and B11, with inactive: 0.673.
B12: the enrichment score is inactive: 0.371.
Take B13: the enrichment score is inactive: 0.727.
B14: the enrichment score was inactive: 0.578.
For B15, the enrichment score was inactive: 0.968.
The same measure, in the same setting: then B16, with inactive: 0.521; and B17, with inactive: 0.569; and B18, with inactive: 0.631.
On to B19, for which the enrichment score was inactive: 0.765.

Another test addresses SHP2 N-SH2 domain L43F. Described as above. The settings on record: peptide library: pTyr-Var.
As to B1, the enrichment score was inactive: 0.415.
On the same count and under the same terms, under B2 stands inactive: 0.759; under B3, inactive: 0.774.
As to B4, the enrichment score was inactive: 0.641.
On the same count and under the same terms, then B5, with active: 4.82.
The same measure, in the same setting: under B6 stands inactive: 0.702.
For the molecule B7, the enrichment score is inactive: 1.02.
On to B8, for which the enrichment score is inactive: 0.734.
With B9, the enrichment score was inactive: 1.05.
Still for that read-out and setting: then B10, with inactive: 0.866.
On the same count and under the same terms, then B11, with inactive: 0.727; and B12, with inactive: 0.477; and B13, with inactive: 0.745.
On the same count and under the same terms, under B14 stands inactive: 0.61; under B15, inactive: 0.762.
B16: the enrichment score was inactive: 0.664.
As for B17, the enrichment score is inactive: 0.55.
On the same count and under the same terms, under B18 stands inactive: 1.02; under B19, inactive: 0.681.

Another test addresses SHP2 N-SH2 domain T42A. The description is as above. The settings on record: peptide library: pTyr-Var.
Consider B1, for which the enrichment score is inactive: 0.766.
In the case of B2, the enrichment score was inactive: 0.781.
For B3, the enrichment score is inactive: 0.707.
With B4, the enrichment score was inactive: 2.01.
With B5, the enrichment score is active: 9.55.
Regarding B6, the enrichment score was inactive: 0.686.
The same measure, in the same setting: then B7, with inactive: 0.841; and B8, with inactive: 0.582; and B9, with inactive: 1.53.
B10: the enrichment score is inactive: 0.693.
On the same count and under the same terms, under B11 stands inactive: 0.494; under B12, inactive: 0.463.
Consider B13, for which the enrichment score is inactive: 0.882.
Same read-out and setting: under B14 stands inactive: 0.458.
Consider B15, for which the enrichment score is inactive: 0.644.
Turning to B16, the enrichment score was inactive: 1.06.
For the molecule B17, the enrichment score is inactive: 0.567.
Still for that read-out and setting: then B18, with inactive: 1.78; and B19, with inactive: 0.665.

The target of another test is SHP2 N-SH2 domain T52S. The test is described as above. The settings on record: peptide library: pTyr-Var.
For the molecule B1, the enrichment score was inactive: 0.557.
Take B2: the enrichment score is inactive: 0.651.
Still for that read-out and setting: under B3 stands inactive: 0.805.
In the case of B4, the enrichment score is inactive: 0.647.
Take B5: the enrichment score is active: 4.92.
Take B6: the enrichment score was inactive: 0.718.
On the same count and under the same terms, then B7, with inactive: 0.979; and B8, with inactive: 0.885.
Same read-out and setting: under B9 stands inactive: 1.11.
B10: the enrichment score was inactive: 0.915.
Still for that read-out and setting: under B11 stands inactive: 0.626.
On the same count and under the same terms, then B12, with inactive: 0.459.
For the molecule B13, the enrichment score was inactive: 0.423.
Take B14: the enrichment score is inactive: 0.521.
Consider B15, for which the enrichment score was inactive: 0.615.
On the same count and under the same terms, then B16, with inactive: 0.973; and B17, with inactive: 0.449; and B18, with inactive: 1.06.
On the same count and under the same terms, then B19, with inactive: 0.779.

The target in a further test is SHP2 N-SH2 domain wild-type. The test is described as above. Particulars: peptide library: pTyr-Var.
Turning to B1, the enrichment score is inactive: 0.485.
Still for that read-out and setting: then B2, with inactive: 0.676; and B3, with inactive: 0.759; and B4, with inactive: 0.78.
As for B5, the enrichment score was inactive: 1.05.
Consider B6, for which the enrichment score is inactive: 0.561.
The same measure, in the same setting: then B7, with inactive: 1.5; and B8, with inactive: 1.04.
Turning to B9, the enrichment score is inactive: 1.19.
Regarding B10, the enrichment score was inactive: 0.661.
The same measure, in the same setting: then B11, with inactive: 0.727.
Turning to B12, the enrichment score was inactive: 0.548.
With B13, the enrichment score was inactive: 0.844.
For the molecule B14, the enrichment score is inactive: 0.624.
As to B15, the enrichment score was inactive: 0.859.
Still for that read-out and setting: then B16, with inactive: 0.724; and B17, with inactive: 0.527.
Still for that read-out and setting: then B18, with inactive: 0.722; and B19, with inactive: 0.789.
